In paper PMC8589317:
Results are given in words; binding and its absence hold for the method and conditions named. In cells and extracts the contact can be indirect. Some results given as binding are weak or reduced against the parent protein; the word gives no strength. Blank lines part the entries; values can stand above or below the substance they belong to.

The chains behind the UniProt entries cited, without tags or fusion partners. Where a name states a change or a piece, a line headed by the entry shows the natural chain unless it says otherwise. A line that says so, or that is headed by a name, gives the form on record, which may keep a tag or linker. Residues count along the entry.
UniProt Q16659: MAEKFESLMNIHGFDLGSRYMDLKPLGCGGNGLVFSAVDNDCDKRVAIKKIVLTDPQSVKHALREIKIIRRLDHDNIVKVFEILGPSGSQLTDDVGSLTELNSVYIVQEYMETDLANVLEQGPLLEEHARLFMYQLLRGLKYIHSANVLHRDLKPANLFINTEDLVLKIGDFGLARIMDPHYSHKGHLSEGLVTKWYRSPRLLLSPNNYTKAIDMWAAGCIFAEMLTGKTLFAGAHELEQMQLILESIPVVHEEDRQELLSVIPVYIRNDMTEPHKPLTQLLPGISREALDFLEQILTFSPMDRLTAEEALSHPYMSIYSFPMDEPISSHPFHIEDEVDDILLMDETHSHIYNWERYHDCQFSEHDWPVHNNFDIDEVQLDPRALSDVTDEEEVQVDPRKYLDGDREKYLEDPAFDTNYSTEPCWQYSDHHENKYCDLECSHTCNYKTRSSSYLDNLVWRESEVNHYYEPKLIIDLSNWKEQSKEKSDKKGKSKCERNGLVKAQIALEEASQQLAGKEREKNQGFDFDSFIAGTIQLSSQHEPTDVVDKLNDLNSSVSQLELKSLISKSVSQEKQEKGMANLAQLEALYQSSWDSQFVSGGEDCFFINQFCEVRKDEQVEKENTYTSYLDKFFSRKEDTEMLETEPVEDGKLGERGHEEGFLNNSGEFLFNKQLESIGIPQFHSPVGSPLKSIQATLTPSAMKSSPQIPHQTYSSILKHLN
FLAG/His-tagged MAPK6 fragment 1-480: residues 1-480 of Q16659
FLAG/His-tagged MAPK6 fragment 1-439: residues 1-439 of Q16659
FLAG/His-tagged MAPK6 fragment 1-408: residues 1-408 of Q16659
FLAG/His-tagged MAPK6 fragment 1-389: residues 1-389 of Q16659
FLAG/His-tagged MAPK6 fragment 1-384: residues 1-384 of Q16659
FLAG/His-tagged MAPK6 fragment 1-379: residues 1-379 of Q16659
FLAG/His-tagged MAPK6 fragment 1-373: residues 1-373 of Q16659
FLAG/His-tagged MAPK6 fragment 1-362: residues 1-362 of Q16659
FLAG/His-tagged MAPK6 kinase domain fragment 1-316: residues 1-316 of Q16659
FLAG/His-tagged MAPK6 fragment 317-721 (C34 and C-terminal tail): residues 317-721 of Q16659
FLAG/His-tagged MAPK6 C34 region fragment 317-480: residues 317-480 of Q16659
FLAG/His-tagged MAPK6 C-terminal tail fragment 481-721: residues 481-721 of Q16659
FLAG/His-tagged MAPK6 1-384 with DIDE mutated to KIKK (D/E3K) (Q16659, form named): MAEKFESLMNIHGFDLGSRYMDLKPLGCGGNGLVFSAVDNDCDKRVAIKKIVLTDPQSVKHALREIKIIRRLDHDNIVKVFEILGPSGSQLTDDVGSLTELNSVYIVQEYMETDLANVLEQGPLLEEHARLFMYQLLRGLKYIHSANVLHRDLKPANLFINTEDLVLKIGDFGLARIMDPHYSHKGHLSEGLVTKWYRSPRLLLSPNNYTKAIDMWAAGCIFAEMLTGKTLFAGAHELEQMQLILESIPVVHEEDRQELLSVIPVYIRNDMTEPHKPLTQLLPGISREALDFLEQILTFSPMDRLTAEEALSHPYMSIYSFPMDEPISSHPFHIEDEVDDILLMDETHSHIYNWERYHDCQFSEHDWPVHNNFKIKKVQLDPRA
full-length MAPK6 with 363 to 379 deletion, FLAG-tagged (Q16659, form named): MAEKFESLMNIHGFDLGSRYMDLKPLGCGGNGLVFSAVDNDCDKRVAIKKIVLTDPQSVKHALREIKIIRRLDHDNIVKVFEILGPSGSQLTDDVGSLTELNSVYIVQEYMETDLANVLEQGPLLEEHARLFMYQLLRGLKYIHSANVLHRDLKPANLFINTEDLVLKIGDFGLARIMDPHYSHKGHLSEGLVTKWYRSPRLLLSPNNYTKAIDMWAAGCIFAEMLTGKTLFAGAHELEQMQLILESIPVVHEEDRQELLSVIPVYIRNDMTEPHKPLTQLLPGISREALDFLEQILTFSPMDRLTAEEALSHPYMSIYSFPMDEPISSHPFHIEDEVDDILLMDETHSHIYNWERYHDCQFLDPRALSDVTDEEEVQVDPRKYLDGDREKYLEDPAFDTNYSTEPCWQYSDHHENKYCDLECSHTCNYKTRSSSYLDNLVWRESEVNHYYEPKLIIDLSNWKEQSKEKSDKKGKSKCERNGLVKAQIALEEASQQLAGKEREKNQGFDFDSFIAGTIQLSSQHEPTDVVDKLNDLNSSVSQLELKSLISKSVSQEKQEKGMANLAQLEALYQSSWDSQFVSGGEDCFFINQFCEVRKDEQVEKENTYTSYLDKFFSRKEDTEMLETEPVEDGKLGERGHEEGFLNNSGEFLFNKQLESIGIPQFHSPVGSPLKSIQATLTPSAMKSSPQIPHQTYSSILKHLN
full-length MAPK6 with DIDE mutated to KIKK (D/E3K), FLAG/His-tagged (Q16659, form named): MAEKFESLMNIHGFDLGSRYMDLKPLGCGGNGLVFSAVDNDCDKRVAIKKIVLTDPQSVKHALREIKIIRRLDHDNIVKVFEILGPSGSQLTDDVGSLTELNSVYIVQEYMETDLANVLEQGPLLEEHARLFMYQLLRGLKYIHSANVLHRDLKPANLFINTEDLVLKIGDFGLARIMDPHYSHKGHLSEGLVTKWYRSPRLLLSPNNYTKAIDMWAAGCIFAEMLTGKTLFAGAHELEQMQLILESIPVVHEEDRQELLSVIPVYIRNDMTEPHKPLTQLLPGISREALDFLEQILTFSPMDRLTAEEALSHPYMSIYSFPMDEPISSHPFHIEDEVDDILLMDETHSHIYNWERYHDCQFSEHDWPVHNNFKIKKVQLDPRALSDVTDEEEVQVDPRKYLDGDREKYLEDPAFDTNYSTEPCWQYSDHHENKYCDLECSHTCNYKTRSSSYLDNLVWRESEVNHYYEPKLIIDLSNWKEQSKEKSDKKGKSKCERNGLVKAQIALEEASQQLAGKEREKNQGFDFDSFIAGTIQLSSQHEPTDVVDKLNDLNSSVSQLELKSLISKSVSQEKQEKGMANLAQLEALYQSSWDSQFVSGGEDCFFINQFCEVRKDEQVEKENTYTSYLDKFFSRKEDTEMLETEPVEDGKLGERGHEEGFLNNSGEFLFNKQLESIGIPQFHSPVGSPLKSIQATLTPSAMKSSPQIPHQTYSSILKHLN
FLAG/His-tagged MAPK6 mutant with EEDRQE mutated to AAARAA (D/E/Q-5A) (Q16659, form named): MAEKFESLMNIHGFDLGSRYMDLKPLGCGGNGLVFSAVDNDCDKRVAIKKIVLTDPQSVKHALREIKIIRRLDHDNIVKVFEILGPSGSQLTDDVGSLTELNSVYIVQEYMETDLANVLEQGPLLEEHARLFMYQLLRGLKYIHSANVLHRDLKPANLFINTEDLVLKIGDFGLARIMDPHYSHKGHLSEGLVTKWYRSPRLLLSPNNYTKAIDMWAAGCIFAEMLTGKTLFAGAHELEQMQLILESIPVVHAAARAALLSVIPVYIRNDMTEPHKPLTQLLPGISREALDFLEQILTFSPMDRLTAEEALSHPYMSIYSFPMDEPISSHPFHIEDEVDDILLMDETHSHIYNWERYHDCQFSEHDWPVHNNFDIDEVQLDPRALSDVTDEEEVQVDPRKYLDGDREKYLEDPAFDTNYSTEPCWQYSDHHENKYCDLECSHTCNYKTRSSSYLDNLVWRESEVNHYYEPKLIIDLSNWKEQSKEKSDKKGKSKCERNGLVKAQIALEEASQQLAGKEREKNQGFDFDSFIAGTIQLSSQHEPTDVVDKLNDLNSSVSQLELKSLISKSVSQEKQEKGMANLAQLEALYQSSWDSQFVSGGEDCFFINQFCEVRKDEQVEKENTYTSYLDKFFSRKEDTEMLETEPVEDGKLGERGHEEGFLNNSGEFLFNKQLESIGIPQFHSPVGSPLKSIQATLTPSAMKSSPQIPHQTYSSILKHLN
UniProt P31749: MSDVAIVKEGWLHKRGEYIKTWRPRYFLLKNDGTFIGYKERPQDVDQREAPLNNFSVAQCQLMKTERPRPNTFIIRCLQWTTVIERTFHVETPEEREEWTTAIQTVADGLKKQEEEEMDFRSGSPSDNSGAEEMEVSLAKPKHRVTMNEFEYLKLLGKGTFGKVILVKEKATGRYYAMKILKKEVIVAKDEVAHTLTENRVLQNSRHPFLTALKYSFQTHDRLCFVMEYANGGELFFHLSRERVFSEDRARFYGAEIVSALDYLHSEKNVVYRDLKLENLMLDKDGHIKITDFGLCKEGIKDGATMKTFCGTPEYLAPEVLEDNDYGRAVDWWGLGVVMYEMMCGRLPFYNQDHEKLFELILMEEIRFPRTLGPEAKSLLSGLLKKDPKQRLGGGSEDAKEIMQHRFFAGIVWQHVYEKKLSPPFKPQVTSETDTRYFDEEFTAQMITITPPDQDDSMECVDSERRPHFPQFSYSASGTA

What was measured:
[1] = molecular target: FLAG/His-tagged MAPK6 fragment 1-362 (human) (UniProt Q16659); assay: co-IP; FH-tagged MAPK6 (wild type, mutants, fragments) precipitated with anti-FLAG M2 affinity gel, Western blot for AKT (AKT1-His); lysates of transfected HEK293T cells, 48 hours after transfection
[2] = molecular target: FLAG/His-tagged S189A mutant MAPK6 (human) (UniProt Q16659); assay: as above
[3] = molecular target: FLAG/His-tagged MAPK6 fragment 317-721 (C34 and C-terminal tail) (human) (UniProt Q16659); assay: as above
[4] = molecular target: FLAG/His-tagged MAPK6 1-384 with DIDE mutated to KIKK (D/E3K) (human) (UniProt Q16659); assay: as above
[5] = molecular target: full-length MAPK6 with 363 to 379 deletion, FLAG-tagged (human) (UniProt Q16659); assay: as above
[6] = molecular target: full-length MAPK6 with DIDE mutated to KIKK (D/E3K), FLAG/His-tagged (human) (UniProt Q16659); assay: as above
[7] = molecular target: FLAG/His-tagged MAPK6 fragment 1-384 (human) (UniProt Q16659); assay: as above
[8] = molecular target: FLAG/His-tagged MAPK6 fragment 1-389 (human) (UniProt Q16659); assay: as above
[9] = molecular target: FLAG/His-tagged MAPK6 fragment 1-439 (human) (UniProt Q16659); assay: as above
[10] = molecular target: FLAG/His-tagged MAPK6 fragment 1-373 (human) (UniProt Q16659); assay: as above
[11] = molecular target: FLAG/His-tagged MAPK6 fragment 1-408 (human) (UniProt Q16659); assay: as above
[12] = molecular target: FLAG/His-tagged MAPK6 C34 region fragment 317-480 (human) (UniProt Q16659); assay: as above
[13] = molecular target: FLAG/His (FH)-tagged MAPK6, wild type, full length (human) (UniProt Q16659); assay: as above
[14] = molecular target: FLAG/His-tagged MAPK6 kinase domain fragment 1-316 (human) (UniProt Q16659); assay: as above
[15] = molecular target: FLAG/His-tagged MAPK6 mutant with EEDRQE mutated to AAARAA (D/E/Q-5A) (human) (UniProt Q16659); assay: as above
[16] = molecular target: FLAG/His-tagged MAPK6 fragment 1-480 (human) (UniProt Q16659); assay: as above
[17] = molecular target: FLAG/His-tagged MAPK6 fragment 1-379 (human) (UniProt Q16659); assay: as above
[18] = molecular target: FLAG/His-tagged MAPK6 C-terminal tail fragment 481-721 (human) (UniProt Q16659); assay: as above
FLAG-tagged AKT1 = FLAG-tagged AKT1 (UniProt P31749); assay: co-IP; AKT1-FLAG precipitated with anti-FLAG M2 affinity gel, Western blot for HA (MAPK6-HA); lysates of transfected HEK293T or MAPK4-KO HCT116 cells, 48 hours after transfection
[19] = molecular target: FLAG-tagged AKT1 (in MAPK4-KO HCT116 cells) (UniProt P31749); assay: as above

binding [1]: no binding
binding [2]: binds
binding [3]: binds
binding [4]: no binding
binding [5]: binds
binding [6]: binds
binding [7]: binds
binding [8]: binds
binding [9]: binds
binding [10]: no binding
binding [11]: binds
binding [12]: binds
binding [13]: binds
binding [14]: no binding
binding [15]: binds
binding [16]: binds
binding [17]: binds
binding [18]: binds
Substance: His-tagged AKT1 (from UniProt P31749 1-480) (enzyme)

binding (FLAG-tagged AKT1): binds
Substance: HA-tagged MAPK6 (from UniProt Q16659 1-721) (enzyme)

binding [19]: binds
Substance: HA-tagged MAPK6 (in MAPK4-KO HCT116 cells) (from UniProt Q16659 1-721) (enzyme)
